# PMC4336329 (PLoS ONE, 2015)
# The campaign covered roughly 310,000 compounds. About 2,200 (0.71%) showed an effect of 50% or more. Effects have a minus sign here. This is one part of the list.
# Biological target: human ether-à-go-go-related gene (hERG) potassium channel (human, UniProt Q12809)
# Test: primary screen, population patch clamp on CHO cells stably expressing hERG
# human ether-à-go-go-related gene (hERG) potassium channel, sequence (Q12809 whole entry, looked up): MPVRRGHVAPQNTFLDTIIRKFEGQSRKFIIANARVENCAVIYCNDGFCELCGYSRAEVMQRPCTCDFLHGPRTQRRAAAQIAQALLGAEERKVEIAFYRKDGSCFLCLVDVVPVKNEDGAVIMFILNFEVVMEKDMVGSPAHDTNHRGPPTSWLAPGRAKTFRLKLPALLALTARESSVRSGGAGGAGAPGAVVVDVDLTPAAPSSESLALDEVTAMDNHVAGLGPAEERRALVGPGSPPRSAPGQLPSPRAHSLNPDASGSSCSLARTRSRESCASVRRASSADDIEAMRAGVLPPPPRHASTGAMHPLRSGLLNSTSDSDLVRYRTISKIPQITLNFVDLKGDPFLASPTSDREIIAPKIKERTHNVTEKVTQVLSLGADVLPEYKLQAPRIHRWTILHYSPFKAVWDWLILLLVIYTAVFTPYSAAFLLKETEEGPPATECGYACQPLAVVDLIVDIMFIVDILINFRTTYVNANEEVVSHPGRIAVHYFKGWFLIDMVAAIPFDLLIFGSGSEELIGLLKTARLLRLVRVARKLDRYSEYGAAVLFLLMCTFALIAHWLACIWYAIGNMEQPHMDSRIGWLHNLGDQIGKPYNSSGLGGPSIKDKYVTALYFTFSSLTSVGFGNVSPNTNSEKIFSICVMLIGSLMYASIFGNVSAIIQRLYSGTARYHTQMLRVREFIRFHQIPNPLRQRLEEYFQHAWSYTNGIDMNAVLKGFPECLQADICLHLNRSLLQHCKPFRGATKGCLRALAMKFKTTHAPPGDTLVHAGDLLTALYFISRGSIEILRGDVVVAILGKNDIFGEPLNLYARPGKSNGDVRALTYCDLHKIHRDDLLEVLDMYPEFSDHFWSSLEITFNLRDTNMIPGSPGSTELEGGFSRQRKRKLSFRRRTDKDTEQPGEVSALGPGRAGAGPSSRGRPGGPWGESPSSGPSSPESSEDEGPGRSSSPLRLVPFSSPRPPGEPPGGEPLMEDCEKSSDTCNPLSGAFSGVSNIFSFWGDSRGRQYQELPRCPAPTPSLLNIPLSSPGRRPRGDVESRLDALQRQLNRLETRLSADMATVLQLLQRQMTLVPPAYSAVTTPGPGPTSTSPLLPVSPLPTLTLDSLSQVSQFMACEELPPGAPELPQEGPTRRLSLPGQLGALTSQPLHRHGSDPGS
row,Structure (SMILES),"hERG current change (%, negative = inhibition) at 1uM [%]"
1,CC(=O)c1ccc(N2CCN(S(=O)(=O)c3cc4[nH]c(=O)c(=O)[nH]c4cc3C)CC2)cc1,6.22
2,O=C(Nc1cccc(-c2nc3cccnc3s2)c1)c1ccco1,-0.783
3,Oc1[nH]c2ccccc2c1N=Nc1c(F)c(F)c(Cl)c(F)c1F,9.96
4,Cc1ccc(-c2nnn(CC(=O)N(CCN3CCOCC3)C(C(=O)NC(C)(C)C)c3ccco3)n2)cc1 (stereo not shown),17.8
5,COc1ccc(OC)c(CCNC(=O)c2cccc(NC3=NC4CS(=O)(=O)CC4S3)c2)c1 (stereo not shown),-0.402
6,Cc1cccc(OCc2nnc(SCC(=O)NC3CCCCC3)n2C)c1,9.94
7,Cc1nnc(SCC(=O)Nc2ccc(N3CCOCC3)cc2)n1Cc1ccccc1,1.85
8,CC(C)c1ccc(N(C(=O)c2ccco2)C(C(=O)NC2CCCC2)c2ccncc2)cc1 (stereo not shown),-1.36
9,NC(=O)c1ccc(NC(=O)CCc2nc3ccccc3s2)cc1,7.25
10,CCOC(=O)c1sc2ncnc(NCc3ccco3)c2c1C,3.39
11,C=C(C)C(=O)Nc1cccc(C2=NOC3(C2)C[C@@H](C(N)=O)N(C(=O)[C@H]2CCC(=O)N2)C3)c1 (stereo partly shown),9.83
12,COc1cc2[nH]c(=S)n(C3CCN(Cc4ccccc4)CC3)c(=O)c2cc1OC,-4.65
13,CCOC(=O)c1ccc(Oc2cc(C)nc(SC)n2)cc1,3.34
14,O=C(Nc1ccccc1)OCCOc1cccc(Br)c1,7.9
15,O=C(CN1CCN(c2ccc(F)cc2)CC1)NCc1ccc(F)cc1,-8.95
16,COc1ccc(-c2noc(COc3ccccc3OC)n2)cc1OC,7.41
17,NNC(=O)CSc1nnnn1-c1ccccc1,3.23
18,CN1CCN(C(c2cccc(C(F)(F)F)c2)c2nnnn2C(C)(C)C)CC1 (stereo not shown),8.5
19,O=C1C2C3C=CC(C3)C2C(=O)N1c1cccnc1 (stereo not shown),13.5
20,COc1cc(C(=O)NCc2ccc3c(c2)OCO3)ccc1OCc1c(C)noc1C,3.55
21,CC1CN(C2CCN(S(=O)(=O)Cc3ccccc3)CC2)CC(C)O1 (stereo not shown),-2.68
22,Cc1ccc(C2c3c(C)nn(-c4ccc([N+](=O)[O-])cc4)c3N=C3C(=O)Nc4ccccc4N32)cc1 (stereo not shown),11.9

row,Structure (SMILES),"hERG current change (%, negative = inhibition) at 1uM [%]"
1,Oc1ccc(-c2nccc(-c3ccc(Br)cc3)n2)cc1,12.9
2,CC(C)CCN1C(=O)c2ccc(C(=O)NCc3ccco3)cc2C1=O,-1.4
3,COc1cccc(S(=O)(=O)Nc2ccc3sc(C)nc3c2)c1,10.2
4,CCCSc1cc(N2CCCC2)nc(-c2ccccc2)n1,10.8
5,O=C(Nc1cccc(C(=O)Nc2ccccc2F)c1)c1ccccc1,11.4
6,CC(C)c1ccc2oc(=O)cc(CN3CCN(Cc4ccccc4)CC3)c2c1,9.67
7,O=C(CCc1n[nH]c(=O)[nH]c1=O)N/N=C/c1ccc(Br)o1,6.63
8,Cc1ccc(S(=O)(=O)Nc2cc(C(=O)Nc3cc(C)cc(C)c3)ccc2Cl)cc1,8.71
9,C=C(C)CNC(=S)N/N=C/C1=CCC2CC1C2(C)C (stereo not shown),7.5
10,COc1ccc(CNC(C)C23CC4CC(CC(C4)C2)C3)c(OC)c1OC.Cl (stereo not shown),1.98
11,CCNS(=O)(=O)c1ccc(CCC(=O)N2CCN(c3cccc(Cl)c3)CC2)cc1,10.5
12,O=C(NCc1ccco1)c1cc2cc3ccc(Cl)cc3nc2o1,8.75
13,Cc1cccc(-n2c(C)cc(/C=C3\C(=N)N4N=C(CC(C)C)SC4=NC3=O)c2C)c1,9.32
14,CCn1cc(C(=O)NCc2ccccc2)c(=O)c2cc(F)c(N3CCN(C(=O)c4ccco4)CC3)cc21,15.2
15,O=C(Cc1cccs1)N(Cc1ccco1)C1(C(=O)NC2CCCC2)CCCCC1,4.05
16,c1cncc(-c2nc(NCC3COc4ccccc4O3)c3ccccc3n2)c1 (stereo not shown),5.21
17,Cn1c(CC(=O)Nc2ccccc2)nnc1SCC(=O)NC1=NCCS1,13.4
18,Cc1ccc(C(=O)N(Nc2nc3ccccc3s2)C(=O)c2ccc(C)cc2)cc1,13.6
19,O=C(Cc1ccsc1)N1CCN(S(=O)(=O)c2cccc(F)c2)CC1,8.76
20,O=C(NCCc1ccccc1)C1CCN(C2CCN(Cc3ccc(CO)o3)CC2)CC1,5.67
21,Cc1ccc(C(=O)c2cncc(Br)c2)cc1,7.48
